To fix the notation:
B1: PhoQ; a variant is named by its letters at X, in order, P23837 (parent)
chain: MKKLLRLFFPLSLRVRFLLATAAVVLVLSLAYGMVALIGYSVSFDKTTFRLLRGESNLFYTLAKWENNKLHVELPENIDKQSPTMTLIYDENGQLLWAQRDVPWLMKMIQPDWLKSNGFHEIEADVNDTSLLLSGDHSIQQQLQEVREDDDDAEMTHSVAVNVYPATSRMPKLTIVVVDTIPVELKSSYMVWSWFIYVLSANLLLVIPLLWVAAWWSLRPIEALAKEVRELEEHNRELLNPATTRELTSLVRNLNRLLKSERERYDKYRTTLTDLTHSLKTPLXXLQXXLRSLRSEKMSVSDAEPVMLEQISRISQQIGYYLHRASMRGGTLLSRELHPVAPLLDNLTSALNKVYQRKGVNISLDISPEISFVGEQNDFVEVMGNVLDNACKYCLEFVEISARQTDEHLYIVVEDDGPGIPLSKREVIFDRGQRVDTLRPGQGVGLAVAREITEQYEGKIVAGESMLGGARMEVIFGRQHSAPKDE

The other results are listed elsewhere or left out. Where only a bound is given, the exact number is not on record here.

In the assay the parent is B1. Kind of assay: enrichment ratio after two sorts for PhoP signalling (ratio (wild type AVST 3.29)); higher = more functional. As to conditions: with PhoP (E. coli).
On to WQLV, for which the enrichment ratio was ≤ 0.25.

Regarding GFKI, the enrichment ratio is ≤ 0.25.

For QTLP, the enrichment ratio was ≤ 0.25.

Regarding NKES, the enrichment ratio was ≤ 0.25.

IFKW: the enrichment ratio is ≤ 0.25.

Consider NKLY, for which the enrichment ratio was ≤ 0.25.

In the case of IDMW, the enrichment ratio is ≤ 0.25.

Turning to TEWL, the enrichment ratio worked out at 21.7.

As to CFVR, the enrichment ratio was ≤ 0.25.

Regarding RWSY, the enrichment ratio is ≤ 0.25.

On to TDEM, for which the enrichment ratio is ≤ 0.25.

As for WCRN, the enrichment ratio was ≤ 0.25.

Turning to LQFP, the enrichment ratio is ≤ 0.25.

Consider THIG, for which the enrichment ratio was ≤ 0.25.

Take EWIS: the enrichment ratio is ≤ 0.25.

Turning to HDPE, the enrichment ratio was ≤ 0.25.

In the case of WVFF, the enrichment ratio is ≤ 0.25.

In the case of EWNS, the enrichment ratio is ≤ 0.25.

In the case of WGWM, the enrichment ratio was ≤ 0.25.

In the case of KCNK, the enrichment ratio is ≤ 0.25.

With DRWD, the enrichment ratio was ≤ 0.25.

As for MHNN, the enrichment ratio was ≤ 0.25.

Take HYFK: the enrichment ratio is ≤ 0.25.

Regarding FDCF, the enrichment ratio is ≤ 0.25.

Regarding HLRC, the enrichment ratio was ≤ 0.25.

Take LHEQ: the enrichment ratio is ≤ 0.25.

In the case of RGIT, the enrichment ratio is ≤ 0.25.

For the variant YCGS, the enrichment ratio amounted to 0.294.

NSCI: the enrichment ratio is ≤ 0.25.

For the variant QKCQ, the enrichment ratio is ≤ 0.25.

As for MVVY, the enrichment ratio is ≤ 0.25.

Consider DGRD, for which the enrichment ratio is ≤ 0.25.

With VFMI, the enrichment ratio was ≤ 0.25.

For PAPI, the enrichment ratio was ≤ 0.25.

For the variant HYVN, the enrichment ratio was ≤ 0.25.

Regarding RIPL, the enrichment ratio was ≤ 0.25.

As to HNFH, the enrichment ratio was ≤ 0.25.

Consider WKQR, for which the enrichment ratio is ≤ 0.25.

As to IVGF, the enrichment ratio is ≤ 0.25.

For the variant HFGY, the enrichment ratio was ≤ 0.25.

With ENTR, the enrichment ratio was ≤ 0.25.

As for YHWR, the enrichment ratio was ≤ 0.25.

On to EMMS, for which the enrichment ratio is ≤ 0.25.

In the case of IDPE, the enrichment ratio was ≤ 0.25.

As to ATYS, the enrichment ratio is 0.76.

Regarding AMSE, the enrichment ratio was determined as 4.51.

Regarding KLQK, the enrichment ratio was ≤ 0.25.

For the variant ETCE, the enrichment ratio is ≤ 0.25.

As to DHVN, the enrichment ratio was ≤ 0.25.

As to RTHQ, the enrichment ratio is ≤ 0.25.

As to TVIF, the enrichment ratio is ≤ 0.25.

Regarding DQCL, the enrichment ratio was ≤ 0.25.

As for TKIK, the enrichment ratio is ≤ 0.25.

For GHDM, the enrichment ratio is ≤ 0.25.

For the variant KALL, the enrichment ratio is ≤ 0.25.

Consider EPYK, for which the enrichment ratio was ≤ 0.25.

VKPD: the enrichment ratio was ≤ 0.25.

In the case of VIVT, the enrichment ratio was ≤ 0.25.

Consider FYDS, for which the enrichment ratio is 0.288.

As for DGMA, the enrichment ratio was ≤ 0.25.

On to GACM, for which the enrichment ratio is 12.2.

Consider PSAR, for which the enrichment ratio was ≤ 0.25.

Consider FGWL, for which the enrichment ratio was ≤ 0.25.

For EGKS, the enrichment ratio is ≤ 0.25.

Turning to VSTH, the enrichment ratio was ≤ 0.25.

Regarding AKGH, the enrichment ratio is ≤ 0.25.

Turning to KKTA, the enrichment ratio was ≤ 0.25.

Turning to MIPQ, the enrichment ratio was ≤ 0.25.

Turning to YQIK, the enrichment ratio was ≤ 0.25.

On to YMIP, for which the enrichment ratio is ≤ 0.25.

Take EYHI: the enrichment ratio is ≤ 0.25.

As for DPAV, the enrichment ratio is ≤ 0.25.

As to SLNQ, the enrichment ratio was ≤ 0.25.

Turning to YYDQ, the enrichment ratio was ≤ 0.25.

HQDL: the enrichment ratio was ≤ 0.25.

For the variant WAMK, the enrichment ratio was 1.98.

Take YALF: the enrichment ratio is 3.8.

On to WDSS, for which the enrichment ratio was ≤ 0.25.

As to DNMY, the enrichment ratio was ≤ 0.25.

For the variant NFTE, the enrichment ratio was ≤ 0.25.

On to HPRP, for which the enrichment ratio was ≤ 0.25.

For the variant TSFW, the enrichment ratio is ≤ 0.25.

For the variant VPNS, the enrichment ratio was ≤ 0.25.

For ANKN, the enrichment ratio is ≤ 0.25.

On to TGVC, for which the enrichment ratio stood at 16.8.

Take ERRR: the enrichment ratio was ≤ 0.25.

Regarding RSRY, the enrichment ratio was ≤ 0.25.

For LQED, the enrichment ratio was ≤ 0.25.

Regarding LVFQ, the enrichment ratio was ≤ 0.25.

IKNY: the enrichment ratio is ≤ 0.25.

FNIF: the enrichment ratio is ≤ 0.25.

GLND: the enrichment ratio is ≤ 0.25.

Regarding QVHL, the enrichment ratio was ≤ 0.25.

For the variant SLGE, the enrichment ratio came out at 1.74.

With KQWG, the enrichment ratio is ≤ 0.25.

For the variant MKCS, the enrichment ratio is ≤ 0.25.

Take QFYS: the enrichment ratio was ≤ 0.25.

Regarding VHQY, the enrichment ratio is ≤ 0.25.

As to AYDH, the enrichment ratio is ≤ 0.25.

In the case of IGPI, the enrichment ratio was ≤ 0.25.

As for HIVK, the enrichment ratio was ≤ 0.25.

Turning to SHWQ, the enrichment ratio was ≤ 0.25.

For MNSQ, the enrichment ratio was ≤ 0.25.

In the case of ARDV, the enrichment ratio is ≤ 0.25.

For KGVP, the enrichment ratio is ≤ 0.25.

Turning to WFEG, the enrichment ratio was ≤ 0.25.

Take DNVP: the enrichment ratio was ≤ 0.25.

Consider YCTQ, for which the enrichment ratio came to 0.38.

For the variant SFIK, the enrichment ratio is ≤ 0.25.

Turning to LMTW, the enrichment ratio was ≤ 0.25.

Turning to SDQD, the enrichment ratio is ≤ 0.25.

In the case of RLTN, the enrichment ratio is ≤ 0.25.

Consider FMDI, for which the enrichment ratio is ≤ 0.25.

Take PKGI: the enrichment ratio was ≤ 0.25.

As to VQGM, the enrichment ratio was ≤ 0.25.

For SPNW, the enrichment ratio was ≤ 0.25.

Regarding KHYG, the enrichment ratio is ≤ 0.25.

DKFD: the enrichment ratio is ≤ 0.25.

Take VHFM: the enrichment ratio is ≤ 0.25.

RQHF: the enrichment ratio was ≤ 0.25.

As to TCMA, the enrichment ratio is 15.5.

For GLYQ, the enrichment ratio is ≤ 0.25.

LRPL: the enrichment ratio is ≤ 0.25.

Regarding NMRF, the enrichment ratio is ≤ 0.25.

On to GNDD, for which the enrichment ratio is ≤ 0.25.

As for DCIC, the enrichment ratio was ≤ 0.25.

Take FINN: the enrichment ratio was ≤ 0.25.

Regarding GWCE, the enrichment ratio was ≤ 0.25.

Turning to RMKA, the enrichment ratio was ≤ 0.25.

Regarding LQNG, the enrichment ratio was ≤ 0.25.

On to WNPW, for which the enrichment ratio was ≤ 0.25.

For the variant KSHP, the enrichment ratio is ≤ 0.25.

Regarding WQTW, the enrichment ratio was ≤ 0.25.

In the case of ILDS, the enrichment ratio is ≤ 0.25.

Take FDAQ: the enrichment ratio was ≤ 0.25.

Turning to NKWS, the enrichment ratio is ≤ 0.25.

With YKWH, the enrichment ratio was ≤ 0.25.

With HDPT, the enrichment ratio was ≤ 0.25.

For the variant NGQY, the enrichment ratio is ≤ 0.25.

In the case of YLMY, the enrichment ratio was ≤ 0.25.

Turning to YYMY, the enrichment ratio is ≤ 0.25.

With SVRQ, the enrichment ratio was ≤ 0.25.

In the case of TRGR, the enrichment ratio was ≤ 0.25.

As for YENY, the enrichment ratio is ≤ 0.25.

For RGSQ, the enrichment ratio was ≤ 0.25.

Turning to GLLD, the enrichment ratio was ≤ 0.25.

Take WRCH: the enrichment ratio was ≤ 0.25.

Take SSKK: the enrichment ratio is ≤ 0.25.

For PDHH, the enrichment ratio is ≤ 0.25.

On to VKSI, for which the enrichment ratio is ≤ 0.25.

For VIRM, the enrichment ratio was ≤ 0.25.

Take LHFN: the enrichment ratio is ≤ 0.25.

As for TRDS, the enrichment ratio was ≤ 0.25.

Values taken from a collection of fitness landscapes (doi:10.1126/science.1257360).
